Results published in PubChem BioAssay AID686979 (National Center for Advancing Translational Sciences (NCATS), 2013).
Among all 420,000 compounds or so, about 50,000 (12%) were called active. Inconclusive results, whose numbers are uncertain, are shown with a selection of clear calls. Calls follow the shape of the dose curve; as a rule, active = well fitted inhibition curve with a large enough effect; inconclusive = small, poorly fitted or top-dose-only effect; inactive = flat fitted curve, though single readings scatter. Potencies of inconclusive entries are left out as doubtful fits.

Test: qHTS for Inhibitors of human tyrosyl-DNA phosphodiesterase 1 (TDP1): qHTS in cells in presence of CPT; also: nearly all actives have a fitted effect of over 55% in size
Settings: chicken DT40 Tdp1-/-;hTDP1 cells + 20 nM CPT, ATP luminescence, 48 h; activity change, negative = growth inhibition: at 46.2 µM (top of the series) unless noted
Outline: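 Chicken DT40 Tdp1-/- cells complemented with human TDP1, 400 cells/well, exposed to compounds plus 20 nM camptothecin for at least 48 h at 37 C; viability read as ATP content by CellTiter-Glo luminescence.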
% is scaled to controls: 0 for no effect and ±100 for the full control effect; potency is read from the fitted curve at half-maximal effect; tags tell the direction and shape of the fitted curve.

Q: With `Cc1cccc(C)c1C(O)c1ncc(-c2cccc(C(F)(F)F)c2)[nH]1` (centres undefined) as the compound, how does the Potency read?
A: The Potency was inconclusive [inhibitor, partial curve, poor fit].

Q: Which Potency does the source give for `C=CCOc1nc(-c2ccncc2)nc2ccccc12` here?
A: Its Potency is inconclusive [inhibitor, single point].

Q: With `COc1ccc(-n2cc(CNCCCN3CCCC3=O)c(-c3ccccc3Cl)n2)cc1` as the compound, how does the Potency read?
A: Its Potency is active: 16.4 µM.

Q: With `COc1ccc(CNC(=O)COC(=O)c2cc(-c3ccc(Cl)s3)nc3ccccc23)cc1` as the compound, how does the Potency read?
A: The Potency was inconclusive [inhibitor, partial curve].

Q: For `Cc1ccc(NC(=O)/C(=C\c2ccc([N+](=O)[O-])cc2)NC(=O)c2ccccc2)cc1`, which Potency is on record?
A: The Potency was inconclusive [inhibitor, single point].

Q: Which Potency does the source give for `CCC(Oc1ccccc1)C(=O)Nc1ccc(-c2nnc(-c3ccco3)o2)cc1` (centres undefined) here?
A: The Potency was inconclusive [inhibitor, single point].

Q: For `COc1ccc(-c2nc3ccccc3c(=O)n2O)cc1`, which Potency is on record?
A: Its Potency is “inactive”.

Q: Which Potency does the source give for `O=S(=O)(Nc1ccccc1N1CCCCC1)c1ccc(F)cc1F` here?
A: Its Potency is “inactive”.

Q: With `CCOC1=C2[C@@H](CN(S(=O)(=O)c3ccc(C)cc3)[C@H]2c2ccc(CC)cc2)[C@H]2C(=O)N(c3ccccc3)C(=O)[C@H]2C1` as the compound, how does the Potency read?
A: Its Potency is inconclusive [inhibitor, single point].

Q: Which Potency does the source give for `O=C(Nc1ccc2c(c1)OCO2)Nc1ccc(F)cc1F` here?
A: Its Potency is active: 3.66 µM.

Q: Which Potency does the source give for `CC(=O)Nc1ccc(-c2csc(Nc3cccc(C)n3)n2)cc1` here?
A: Its Potency is inconclusive [inhibitor, partial curve, poor fit].

Q: Which Potency does the source give for `O=[N+]([O-])c1cc(Cl)cc(C2=NCCN2)c1` here?
A: Its Potency is active: 18.4 µM.

Q: With `CC(C)NC(=O)Nc1ccc2c(c1)C(=O)N([C@H](C)CO)C[C@H](C)[C@@H](CN(C)Cc1ccc3c(c1)OCO3)OCCCC[C@@H](C)O2` as the compound, how does the Potency read?
A: Its Potency is “inactive”.

Q: For `Cc1cc2c(cc1S(=O)(=O)Nc1cccc(C)c1C)OCC(=O)N2`, which Potency is on record?
A: The Potency was inconclusive [inhibitor, partial curve, poor fit].

Q: For `CS(=O)(=O)N(CC(=O)NC1CCCCC1)c1cccc(Cl)c1`, which Potency is on record?
A: Its Potency is “inactive”.

Q: For `Cc1ccc(-c2noc(CCC(=O)Nc3cccc(C#N)c3)n2)cc1`, which Potency is on record?
A: Its Potency is inconclusive [inhibitor, single point].

Q: Which Potency does the source give for `OC(COc1ccc2c(c1)CCC2)CN1CCN(c2cccc(Cl)c2)CC1` (centres undefined) here?
A: The Potency was inconclusive [inhibitor, single point].

Q: For `Cc1cc2c(cc(C(=O)OC(C(=O)NCc3ccco3)C(C)C)n2C)o1` (centres undefined), which Potency is on record?
A: Its Potency is active: 25.9 µM.

Q: Which Potency does the source give for `O=C(Nc1ccccc1)Nc1cc([N+](=O)[O-])ccc1F` here?
A: The Potency was “inactive”.

Q: With `CCCN1CCN(C(=O)Cn2c(=O)oc3cc(S(=O)(=O)NCc4ccccc4)ccc32)CC1` as the compound, how does the Potency read?
A: The Potency was inconclusive [inhibitor, single point].

Q: For `Cc1nc(N)sc1-c1csc(Nc2ccccc2)n1`, which Potency is on record?
A: The Potency was inconclusive [inhibitor, partial curve, poor fit].

Q: Which Potency does the source give for `CCN(CC)C(=O)c1sc2c(c1C)c(=O)n(Cc1ccccc1)c(=O)n2Cc1c(C)cc(C)cc1C` here?
A: Its Potency is inconclusive [inhibitor, single point].

Q: Which Potency does the source give for `Cc1ccc(NC(=O)CSCC(=O)N2CCCc3ccccc32)cc1` here?
A: The Potency was “inactive”.

Q: For `CC(C)c1nc(SCC(=O)Nc2ccc(N(C)C)cc2)c2ccccc2n1`, which Potency is on record?
A: The Potency was active: 23.1 µM.

Q: With `CC(C)(C)OC(=O)N[C@H]1C=C[C@@H](OC(=O)CC(=O)OCC(F)(F)F)C1` as the compound, how does the Potency read?
A: The Potency was “inactive”.

Q: For `C/C(=N\NC(=S)NC1CCCCC1)c1c(F)cccc1F`, which Potency is on record?
A: The Potency was inconclusive [inhibitor, single point].

Q: For `O=C(NCC(c1ccco1)S(=O)(=O)c1cccs1)c1c(F)cccc1F` (centres undefined), which Potency is on record?
A: Its Potency is inconclusive [inhibitor, single point].

Q: Which Potency does the source give for `CCOc1ccc(/C=C/C(=O)c2c(O)cc(C)oc2=O)cc1` here?
A: The Potency was inconclusive [inhibitor, single point].

Q: With `O=C(NCC(c1cccs1)N1CCOCC1)c1ccccc1NS(=O)(=O)c1ccc(Br)cc1` (centres undefined) as the compound, how does the Potency read?
A: Its Potency is inconclusive [inhibitor, single point].

Q: For `CCOC(=O)c1ccc(NC(=O)c2c(NCc3ccc(OC)c(OC)c3OC)sc3c2CCC(C)C3)cc1` (centres undefined), which Potency is on record?
A: Its Potency is inconclusive [inhibitor, single point].

Q: For `O=C(NCC(c1cccnc1)N1CCc2ccccc21)c1cccc(F)c1` (centres undefined), which Potency is on record?
A: The Potency was active: 14.6 µM.

Q: For `CCCCCCCCCC[n+]1cccc2cc(Br)ccc21`, which Potency is on record?
A: The Potency was active: 0.631 µM.

Q: With `COc1cc(OC)c(N(C)C(=O)c2cc3c(s2)-c2ccccc2S(=O)(=O)C3)cc1Cl` as the compound, how does the Potency read?
A: The Potency was inconclusive [inhibitor, partial curve, poor fit].

Q: Which Potency does the source give for `COc1ccccc1OCC(=O)N/N=C/C=C/c1ccc([N+](=O)[O-])o1` here?
A: Its Potency is active: 6.51 µM.

Q: Which Potency does the source give for `OCC1(CO)COC(C(Cl)(Cl)Cl)OC1` here?
A: Its Potency is “inactive”.

Q: For `FC(F)Sc1ccc(NC(=S)NC2CCCCC2)cc1`, which activity change, negative = growth inhibition is on record?
A: Its activity change, negative = growth inhibition is inconclusive: -34.8% [inhibitor].

Q: Which Potency does the source give for `Cc1nn(-c2ccc(N3CCCC3)nn2)c(C)c1CCC(=O)N1CCN(c2ccc(F)cc2)CC1` here?
A: The Potency was active: 14.6 µM.

Q: Which Potency does the source give for `CN(C)S(=O)(=O)c1cccc(NC(=O)COc2ccccc2C(=O)NCc2ccccc2)c1` here?
A: The Potency was active: 16.4 µM.

Q: For `COC(=O)c1cc(S(=O)(=O)N2CCC(c3cc(OC)ccc3OC)C2)c[nH]1` (centres undefined), which Potency is on record?
A: Its Potency is active: 13 µM.

Q: With `CCN(CC(=O)NC(C)C)C(=O)c1ccc(S(=O)(=O)N(C)c2ccccc2OC)cc1` as the compound, how does the Potency read?
A: Its Potency is inconclusive [inhibitor, single point].

Q: Which Potency does the source give for `CCOC(=O)c1cc(-c2ccc(F)cc2)nc2c1c(=O)[nH]c(=O)n2Cc1ccccc1` here?
A: The Potency was inconclusive [inhibitor, full curve].

Q: Which Potency does the source give for `CC1(c2cccc(Br)c2)NC(=O)N(CC(=O)c2ccc3c(c2)OCCO3)C1=O` (centres undefined) here?
A: Its Potency is inconclusive [inhibitor, partial curve].

Q: For `COC(=O)C1=C(C)NC(C)=C(C(=O)OC)C1C(=O)OCCN1C(=O)c2ccccc2C1=O`, which Potency is on record?
A: Its Potency is “inactive”.

Q: Which Potency does the source give for `CCN(CC)S(=O)(=O)c1ccc(C(C)NCC(=O)Nc2ccccc2C(=O)NC2CC2)cc1` (centres undefined) here?
A: The Potency was inconclusive [inhibitor, single point].
